Assay results: US20200325209A1 (CSL, published 2020)

How the values were obtained:
[1] = molecular target: T1, human neonatal Fc receptor FcRn/β2m, soluble recombinant (human, UniProt P55899 in part; P61769 in part, alexa-488 label (Examples 2-4); minimal chemical biotinylation with Sulfo-NHS-LC-LC-Biotin (Examples 5-6)); experiment: flow cytometry, labelled FcRn on CHO-displayed HSA, pH 7.4
T1 construct: Heterodimer; extracellular domain is inferred; also called hFcRn/β2M; hsFcRn

[2] = molecular target: T1, human neonatal Fc receptor FcRn/β2m, …; experiment: flow cytometry, labelled FcRn on CHO-displayed HSA, pH 5.5
[3] = molecular target: T1, human neonatal Fc receptor FcRn/β2m, …; experiment: flow cytometry, labelled FcRn on CHO-displayed HSA, pH 7.4; remark: listed apart in the source
[4] = molecular target: T1, human neonatal Fc receptor FcRn/β2m, …; experiment: flow cytometry, labelled FcRn on CHO-displayed HSA, pH 5.5; remark: listed apart in the source
[5] = molecular target: T1, human neonatal Fc receptor FcRn/β2m, …; experiment: SPR Biacore 8000, HSA over biotinylated hFcRn/β2M on streptavidin chip, pH 6.0, 37 C
[6] = molecular target: T2, rat FcRn/β2m, soluble recombinant (rat, UniProt P13599 23-298; P07151 21-119); experiment: SPR, FcRn over immobilised HSA, pH 6.0, 1:1 model; pH 6.0
T2 construct: Extracellular domain inferred from 'soluble'
T2 sequence (looked up): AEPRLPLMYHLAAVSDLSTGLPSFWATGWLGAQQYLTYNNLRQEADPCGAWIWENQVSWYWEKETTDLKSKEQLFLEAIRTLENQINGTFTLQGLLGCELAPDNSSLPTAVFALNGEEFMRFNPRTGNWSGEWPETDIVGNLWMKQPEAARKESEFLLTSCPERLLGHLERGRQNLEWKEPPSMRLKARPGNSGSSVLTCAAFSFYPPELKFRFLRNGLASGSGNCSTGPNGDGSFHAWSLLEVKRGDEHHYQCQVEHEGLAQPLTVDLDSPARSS
T2 sequence (b2m, looked up): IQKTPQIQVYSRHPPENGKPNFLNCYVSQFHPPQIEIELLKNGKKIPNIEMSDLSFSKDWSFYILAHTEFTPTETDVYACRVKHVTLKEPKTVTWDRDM
Experimental: (§1) Spot 3 of each flow cell was activated/deactivated and used for reference subtraction. The flow rate of FcRn/β2m was kept constant at 30 μL/min
(§2) A concentration range of 2 to 0.007 μM (pH6.0) and 20 to 0.078 μM (pH7.3) was used and association and dissociation phases were monitored for 180 and 600 seconds respectively.
(§3) Regeneration of the surface was performed as previously described.

[7] = molecular target: T1, human neonatal Fc receptor FcRn/β2m, …; experiment: SPR Biacore 4000, HSA over biotinylated hFcRn/β2M on streptavidin chip, pH 6.0, 37 C
[8] = molecular target: T3, mouse FcRn/β2m, soluble recombinant (mouse, UniProt Q61559 22-297; P01887 21-119); experiment: SPR, FcRn over immobilised HSA, pH 6.0
T3 construct: Extracellular domain inferred from 'soluble'; also called murineFcRn; murine FcRn/β2m
T3 sequence (looked up): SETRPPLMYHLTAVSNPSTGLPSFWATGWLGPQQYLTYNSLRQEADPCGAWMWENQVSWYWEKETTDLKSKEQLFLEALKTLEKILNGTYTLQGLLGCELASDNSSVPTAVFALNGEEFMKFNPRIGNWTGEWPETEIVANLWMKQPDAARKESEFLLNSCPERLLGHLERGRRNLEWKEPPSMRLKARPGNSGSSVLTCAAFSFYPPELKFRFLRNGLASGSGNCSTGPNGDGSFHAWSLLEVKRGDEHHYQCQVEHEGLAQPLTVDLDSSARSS
T3 sequence (b2m, looked up): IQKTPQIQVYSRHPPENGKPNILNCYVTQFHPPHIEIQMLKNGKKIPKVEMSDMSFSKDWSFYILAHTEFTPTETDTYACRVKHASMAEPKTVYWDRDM

[9] = molecular target: T1, human neonatal Fc receptor FcRn/β2m, …; experiment: SPR, FcRn over immobilised HSA, pH 7.3, steady state
Experimental: as §1, §2, §3

[10] = molecular target: T4, cynomolgus monkey FcRn/β2m, soluble recombinant (cynomolgus monkey, UniProt Q8SPV9 24-297; Q8SPW0 21-119); experiment: as above
T4 construct: Extracellular domain inferred from 'soluble'; also called cynoFcRn; cyno FcRn/β2m
T4 sequence (Q8SPV9 24-297 limits assumed, chain 1 of 2): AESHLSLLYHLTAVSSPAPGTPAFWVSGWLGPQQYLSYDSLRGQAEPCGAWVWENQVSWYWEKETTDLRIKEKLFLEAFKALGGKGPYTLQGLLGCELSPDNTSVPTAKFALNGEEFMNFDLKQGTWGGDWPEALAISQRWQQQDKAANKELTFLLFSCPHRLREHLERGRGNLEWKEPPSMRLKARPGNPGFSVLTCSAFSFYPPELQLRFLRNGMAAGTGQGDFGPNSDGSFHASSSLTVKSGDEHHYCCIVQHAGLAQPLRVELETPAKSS
T4 sequence (Q8SPW0 21-119 limits assumed, chain 2 of 2, further chain): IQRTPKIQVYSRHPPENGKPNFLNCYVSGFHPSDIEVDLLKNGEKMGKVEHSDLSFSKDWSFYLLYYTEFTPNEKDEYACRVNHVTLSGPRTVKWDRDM
Experimental: as §1, §2, §3

[11] = molecular target: T1, human neonatal Fc receptor FcRn/β2m, …; experiment: SPR, FcRn over immobilised HSA, pH 6.0, 1:1 model
Experimental: as §1, §2, §3

[12] = molecular target: T4, cynomolgus monkey FcRn/β2m, soluble …; experiment: SPR, FcRn over immobilised HSA, pH 6.0, 1:1 model
Experimental: as §1, §2, §3

[13] = molecular target: T1, human neonatal Fc receptor FcRn/β2m, …; experiment: flow cytometry, labelled FcRn on CHO-displayed HSA, pH 7.3
From the text: (§4) Background fluorescence due to non-specific binding of the labelled FcRn to the cells was subtracted from the value obtained.

[14] = molecular target: T1, human neonatal Fc receptor FcRn/β2m, …; experiment: flow cytometry, labelled FcRn on CHO-displayed HSA, pH 5.4
From the text: as §4

T1 sequence (P55899 24-297 limits assumed, chain 1 of 2): as the sequence (Q8SPV9 24-297 limits assumed, chain 1 of 2) above, with D39N, Q44E, S99G, G189S, N190S, M217L, T269S counted along it
T1 sequence (P61769 21-119 limits assumed, chain 2 of 2, further chain): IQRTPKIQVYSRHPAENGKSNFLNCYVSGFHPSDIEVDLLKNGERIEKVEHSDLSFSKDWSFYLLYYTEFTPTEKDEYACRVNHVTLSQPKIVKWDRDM

B1: HSA [Q522L/A552V/G572R/K573Y], membrane-tethered on CHO cells (other)
chain: DAHKSEVAHRFKDLGEENFKALVLIAFAQYLQQCPFEDHVKLVNEVTEFAKTCVADESAENCDKSLHTLFGDKLCTVATLRETYGEMADCCAKQEPERNECFLQHKDDNPNLPRLVRPEVDVMCTAFHDNEETFLKKYLYEIARRHPYFYAPELLFFAKRYKAAFTECCQAADKAACLLPKLDELR[gap - about 200 residues]NLIKQNCELFEQLGEYKFQNALLVRYTKKVPQVSTPTLVEVSRNLGKVGSKCCKHPEAKRMPCAEDYLSVVLNQLCVLHEKTPVSDRVTKCCTESLVNRRPCFSALEVDETYVPKEFNAETFTFHADICTLSEKERLIKKQTALVELVKHKPKATKEQLKAVMDDFVAFVEKCCKADDKETCFAEERYKLVAASQAALGL
notes: also called quadruple HSA variant; not shown: Myc tag and PDGFR transmembrane domain
fold change to WT [1]: 8.3 fold | mean geoMFI [1]: 329 | fold change to WT [2]: 440 fold | mean geoMFI [2]: 70100

B2: HSA [Q522L/A552V/G572R], membrane-tethered on CHO cells (other)
chain: DAHKSEVAHRFKDLGEENFKALVLIAFAQYLQQCPFEDHVKLVNEVTEFAKTCVADESAENCDKSLHTLFGDKLCTVATLRETYGEMADCCAKQEPERNECFLQHKDDNPNLPRLVRPEVDVMCTAFHDNEETFLKKYLYEIARRHPYFYAPELLFFAKRYKAAFTECCQAADKAACLLPKLDELR[gap - about 200 residues]NLIKQNCELFEQLGEYKFQNALLVRYTKKVPQVSTPTLVEVSRNLGKVGSKCCKHPEAKRMPCAEDYLSVVLNQLCVLHEKTPVSDRVTKCCTESLVNRRPCFSALEVDETYVPKEFNAETFTFHADICTLSEKERLIKKQTALVELVKHKPKATKEQLKAVMDDFVAFVEKCCKADDKETCFAEERKKLVAASQAALGL
notes: also called Q522L/A522V/G572R; not shown: Myc tag and PDGFR transmembrane domain
fold change to WT [3]: 1.18 fold | mean geoMFI [3]: 46.8 | fold change to WT [1]: 1.18 fold | mean geoMFI [1]: 46.8 | fold change to WT [2]: 409 fold | mean geoMFI [2]: 65200 | fold change to WT [4]: 409 fold | mean geoMFI [4]: 65200

B3: HSA [Q522L/A552V/G572R], soluble (other)
chain: DAHKSEVAHRFKDLGEENFKALVLIAFAQYLQQCPFEDHVKLVNEVTEFAKTCVADESAENCDKSLHTLFGDKLCTVATLRETYGEMADCCAKQEPERNECFLQHKDDNPNLPRLVRPEVDVMCTAFHDNEETFLKKYLYEIARRHPYFYAPELLFFAKRYKAAFTECCQAADKAACLLPKLDELR[gap - about 200 residues]NLIKQNCELFEQLGEYKFQNALLVRYTKKVPQVSTPTLVEVSRNLGKVGSKCCKHPEAKRMPCAEDYLSVVLNQLCVLHEKTPVSDRVTKCCTESLVNRRPCFSALEVDETYVPKEFNAETFTFHADICTLSEKERLIKKQTALVELVKHKPKATKEQLKAVMDDFVAFVEKCCKADDKETCFAEERKKLVAASQAALGL
notes: also called triple HSA variant
Kd [5]: 25 nM | koff [5]: 0.00176 s⁻¹ | kon [5]: 70100 M⁻¹ s⁻¹ | Kd [6]: 2250 nM | Kd [7]: 41 nM | koff [7]: 0.0014 s⁻¹ | kon [7]: 34200 M⁻¹ s⁻¹ | binding result [8]: no binding (tested: 2 µM) | Kd [9]: 16100 nM | Kd [10]: 7600 nM | Kd [11]: 16.9 nM | Kd [12]: 24.5 nM

B4: HSA [Q522L/A552V/K573Y], membrane-tethered on CHO cells (other)
chain: DAHKSEVAHRFKDLGEENFKALVLIAFAQYLQQCPFEDHVKLVNEVTEFAKTCVADESAENCDKSLHTLFGDKLCTVATLRETYGEMADCCAKQEPERNECFLQHKDDNPNLPRLVRPEVDVMCTAFHDNEETFLKKYLYEIARRHPYFYAPELLFFAKRYKAAFTECCQAADKAACLLPKLDELR[gap - about 200 residues]NLIKQNCELFEQLGEYKFQNALLVRYTKKVPQVSTPTLVEVSRNLGKVGSKCCKHPEAKRMPCAEDYLSVVLNQLCVLHEKTPVSDRVTKCCTESLVNRRPCFSALEVDETYVPKEFNAETFTFHADICTLSEKERLIKKQTALVELVKHKPKATKEQLKAVMDDFVAFVEKCCKADDKETCFAEEGYKLVAASQAALGL
notes: not shown: Myc tag and PDGFR transmembrane domain
fold change to WT [1]: 0.8 fold | mean geoMFI [1]: 31.9 | fold change to WT [2]: 651 fold | mean geoMFI [2]: 104000

B5: HSA [Q522L/G572R/K573Y], membrane-tethered on CHO cells (other)
chain: DAHKSEVAHRFKDLGEENFKALVLIAFAQYLQQCPFEDHVKLVNEVTEFAKTCVADESAENCDKSLHTLFGDKLCTVATLRETYGEMADCCAKQEPERNECFLQHKDDNPNLPRLVRPEVDVMCTAFHDNEETFLKKYLYEIARRHPYFYAPELLFFAKRYKAAFTECCQAADKAACLLPKLDELR[gap - about 200 residues]NLIKQNCELFEQLGEYKFQNALLVRYTKKVPQVSTPTLVEVSRNLGKVGSKCCKHPEAKRMPCAEDYLSVVLNQLCVLHEKTPVSDRVTKCCTESLVNRRPCFSALEVDETYVPKEFNAETFTFHADICTLSEKERLIKKQTALVELVKHKPKATKEQLKAVMDDFAAFVEKCCKADDKETCFAEERYKLVAASQAALGL
notes: as for B4
fold change to WT [1]: 4.9 fold | mean geoMFI [1]: 194 | fold change to WT [2]: 394 fold | mean geoMFI [2]: 62800

B6: HSA [T133I/Q522L/A552V/G572R], membrane-tethered on CHO cells (other)
chain: DAHKSEVAHRFKDLGEENFKALVLIAFAQYLQQCPFEDHVKLVNEVTEFAKTCVADESAENCDKSLHTLFGDKLCTVATLRETYGEMADCCAKQEPERNECFLQHKDDNPNLPRLVRPEVDVMCTAFHDNEEIFLKKYLYEIARRHPYFYAPELLFFAKRYKAAFTECCQAADKAACLLPKLDELR[gap - about 200 residues]NLIKQNCELFEQLGEYKFQNALLVRYTKKVPQVSTPTLVEVSRNLGKVGSKCCKHPEAKRMPCAEDYLSVVLNQLCVLHEKTPVSDRVTKCCTESLVNRRPCFSALEVDETYVPKEFNAETFTFHADICTLSEKERLIKKQTALVELVKHKPKATKEQLKAVMDDFVAFVEKCCKADDKETCFAEERKKLVAASQAALGL
notes: as for B4
fold change to WT [13]: 3.3 fold | geoMFI [13]: 53.8 | fold change to WT [14]: 22.6 fold | geoMFI [14]: 37800
